Assay results taken from PubChem BioAssay AID686979 (National Center for Advancing Translational Sciences (NCATS), 2013).
In all, about 420,000 compounds went through this assay and about 50,000 (12%) were called active. This list was built around the results that the source calls inconclusive (neither active nor inactive); the mix of calls is not that of the screen. The call rests on the fitted dose curve; in most records, active means well fitted inhibition curve with a large enough effect; inconclusive means small, poorly fitted or top-dose-only effect; inactive means flat fitted curve, though single readings scatter. Potencies of inconclusive entries are left out as doubtful fits.
On the % scale 0 is the no-effect control and ±100 the full control effect; potency means the concentration at half of the fitted maximal effect; tags describe the fitted curve by direction and shape.

Experiment: qHTS for Inhibitors of human tyrosyl-DNA phosphodiesterase 1 (TDP1): qHTS in cells in presence of CPT; further: nearly all actives have a fitted effect of over 55% in size
Conditions: chicken DT40 Tdp1-/-;hTDP1 cells + 20 nM CPT, ATP luminescence, 48 h; activity change, negative = growth inhibition: at 46.2 µM (top of the series) unless noted
Summary of the method: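 Chicken DT40 Tdp1-/- cells complemented with human TDP1, 400 cells/well, exposed to compounds plus 20 nM camptothecin for at least 48 h at 37 C; viability read as ATP content by CellTiter-Glo luminescence.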
For `COCCn1c(=S)[nH]c2cc(C(=O)N3CCN(Cc4ccc5c(c4)OCO5)CC3)ccc2c1=O`, the Potency was inconclusive [inhibitor, single point].
For `COc1ccc(/C(O)=C2/C(=O)C(=O)N(CCN3CCNCC3)C2c2cccc([N+](=O)[O-])c2)cc1` (configuration not stated), the Potency was “inactive”.
In the case of `O=C1CCC(C(=O)N(CCO)Cc2ccccc2)CN1CC1CCCCC1` (configuration not stated), the Potency is reported as “inactive”.
In the case of `CCN(Cc1ccccc1)CC(O)COC(c1ccc(OC)cc1)c1ccc(OC)cc1` (configuration not stated), the Potency is reported as active: 20.6 µM.
In the case of `CCc1ccc(CSc2nccn2-c2ccccc2)cc1`, the Potency is reported as inconclusive [inhibitor, single point].
For `CCOc1ccc(-n2nc3ccc(N)cc3n2)cc1`, the Potency was “inactive”.
For `FC(F)(F)c1cc(Sc2ccccc2)nc(-c2ccccn2)n1`, the Potency was inconclusive [inhibitor, single point].
With `O=S(=O)(NCCC1=CCCCC1)c1ccc(Br)cc1` the Potency was inconclusive [inhibitor, single point].
With `COc1ccc(Cn2cc3c(-c4ccc(F)cc4)nnc-3c3cc(OC)c(OC)cc32)cc1` the Potency was active: 4.11 µM.
In the case of `CCCOC(=O)c1cccc(NC(=O)C(C)(C)C)c1`, the activity change, negative = growth inhibition is reported as inconclusive: -30.5% [inhibitor].
For `COc1ccc(CCn2c(-c3cc([N+](=O)[O-])cc([N+](=O)[O-])c3)nc3nc4ccccc4nc32)cc1OC`, the Potency was inconclusive [inhibitor, single point].
For `Cc1ccc2cc(C#N)c(N3CCCN(S(=O)(=O)c4ccc(F)cc4)CC3)nc2c1`, the Potency was inconclusive [inhibitor, single point].
With `CC(=O)C1C(c2ccc(Cl)cc2)NC(=O)NC1(O)C(F)(F)F` (configuration not stated) the Potency was “inactive”.
With `COc1cc(/C=C/C(=O)O)cc(S(=O)(=O)NCc2ccc3c(c2)OCO3)c1OC` the Potency was inconclusive [inhibitor, single point].
With `COc1ccc(CC(N)c2csc(Nc3nccc(C(F)(F)F)n3)n2)cc1` (configuration not stated) the Potency was inconclusive [inhibitor, single point].
For `COc1ccc(-c2cc(=O)[nH][nH]2)cc1OC`, the Potency was “inactive”.
With `Cc1cc(Cl)c2oc(C(=O)N3CCOCC3)c(C)c2c1` the activity change, negative = growth inhibition was inconclusive: -32.6% [inhibitor].
In the case of `CC(C)[C@@H]1Cc2[nH][nH]c(=O)c2[C@H](C)O1`, the Potency is reported as “inactive”.
For `Cc1cc(C)cc(NC(=O)CC23CC4CC(C2)CC(n2nnc(C)n2)(C4)C3)c1`, the activity change, negative = growth inhibition was inconclusive: -30.3% [inhibitor].
For `N#Cc1nc(-c2ccco2)oc1NCc1ccccc1Cl`, the Potency was “inactive”.
For `OC(COCc1cccs1)CN1CCN(c2cccc(C(F)(F)F)c2)CC1` (configuration not stated), the Potency was active: 18.4 µM.
In the case of `CC(=O)Nc1ccc(S(=O)(=O)Nc2c(C)nn(-c3ccccc3)c2C)cc1`, the Potency is reported as inconclusive [inhibitor, partial curve].
With `CCc1ccc2[nH]c(=O)c(C(c3nnnn3CCOC)N3CCN(c4ccccc4)CC3)cc2c1` (configuration not stated) the Potency was inconclusive [inhibitor, single point].
In the case of `CCOC(=O)CSC(C)C(=O)Nc1nnc(C(C)C)s1` (configuration not stated), the Potency is reported as “inactive”.
In the case of `CCOC(=O)C1CCCN(C(=O)c2sc3nc(-c4ccccc4)cn3c2C)C1` (configuration not stated), the Potency is reported as inconclusive [inhibitor, single point].
In the case of `COc1ccc(NC(=O)CC2C(=O)N(c3ccc(OC)cc3)C(=O)N2CCC2=CCCCC2)cc1` (configuration not stated), the Potency is reported as inconclusive [inhibitor, single point].
With `CCC(=O)NC1Cc2ccccc2C(c2ccccc2)C1` (configuration not stated) the Potency was “inactive”.
In the case of `O=C(NCC1CCCO1)c1nnc(Cc2ccc(F)cc2)o1` (configuration not stated), the Potency is reported as “inactive”.
In the case of `Cc1ccc(C)c(Nc2cc(C(=O)NC3CCCC3)c3ccccc3n2)c1`, the Potency is reported as “inactive”.
For `Cc1ccc(C(=O)N2C(=S)C(c3ccc(F)cc3)=NC23CCN(C)CC3)cc1`, the Potency was active: 5.17 µM.
With `COc1ccccc1C(=O)N(Cc1cc2cccc(C)c2nc1N1CCC(O)CC1)C1CC1` the activity change, negative = growth inhibition was inactive: -6.81% [at 9.04 µM].
For `Cc1ccccc1NCCC(=O)Nc1ccc(F)cc1`, the Potency was “inactive”.
For `COc1ccc(CC(C)N2CCN(c3ccccc3)CC2)cc1OC` (configuration not stated), the Potency was inconclusive [inhibitor, partial curve].
In the case of `COc1cc(-c2noc(-c3ccc(NCC4CCCO4)c([N+](=O)[O-])c3)n2)cc(OC)c1OC` (configuration not stated), the Potency is reported as active: 7.31 µM.
With `COc1ccc(-c2csc(NC(=O)CS(=O)(=O)c3ccccc3)n2)cc1OC` the Potency was inconclusive [inhibitor, single point].
With `O=C(Cc1ccc(Cl)cc1)Nc1cccc(S(=O)(=O)N2CCCCC2)c1` the Potency was inconclusive [inhibitor, single point].
For `Cc1ccc(CNC(=O)c2cc3c(=O)n(Cc4ccco4)ccc3nc2C)cc1`, the Potency was inconclusive [inhibitor, single point].
For `O=C(COc1ccccc1)NCC(=O)N/N=C/c1ccc(O)cc1O`, the Potency was inconclusive [inhibitor, single point].
With `O=C(CS(=O)(=O)Cc1ccccc1)NCCc1ccc(F)cc1` the Potency was “inactive”.
With `Cc1ccc(CN(C)C(=O)c2cccc(S(=O)(=O)N3CCCC3)c2)o1` the Potency was “inactive”.
In the case of `COCCCn1cn[nH]c1=S`, the Potency is reported as inconclusive [inhibitor, single point].
With `C/C(=N\NC(=O)c1ccccc1)c1ccc(-n2ccnc2)cc1` the Potency was inconclusive [inhibitor, single point].
In the case of `Cc1ccc(Nc2nc(N)c([N+](=O)[O-])c(NCCO)n2)cc1`, the Potency is reported as inconclusive [inhibitor, single point].
For `COc1cc(NC(=O)CSc2nc3ncccc3o2)cc(OC)c1`, the Potency was inconclusive [inhibitor, single point].
With `CN(CC1CCCN(CCc2ccc(Cl)cc2)C1)C(=O)c1ccco1` (configuration not stated) the Potency was inconclusive [inhibitor, single point].
For `Cc1ccccc1Oc1nnc(-c2cccs2)c2ccccc12`, the activity change, negative = growth inhibition was inconclusive: -30.5% [inhibitor].
With `Cc1ccc2oc(=O)c3cc(C(=O)NCCCN4C(C)CCCC4C)sc3c2c1` (configuration not stated) the Potency was inconclusive [inhibitor, single point].
